# Laboratory results from paper PMC12820563, “FoxP3 forms a head-to-head dimer in vivo and stabilizes its multimerization on adjacent microsatellites”.
# The list shows a part of the results.
# Biological target: T1, MBP-FoxP1dN (Mus musculus, UniProt P58462 326-579)
# T1 sequence: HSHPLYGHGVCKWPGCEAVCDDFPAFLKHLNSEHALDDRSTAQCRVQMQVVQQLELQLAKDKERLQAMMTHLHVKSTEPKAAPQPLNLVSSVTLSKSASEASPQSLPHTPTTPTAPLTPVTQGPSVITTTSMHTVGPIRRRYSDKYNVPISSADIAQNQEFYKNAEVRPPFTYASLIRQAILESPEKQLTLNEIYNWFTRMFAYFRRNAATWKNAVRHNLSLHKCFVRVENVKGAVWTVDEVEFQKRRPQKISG
# Experiment: PD-seq (MBP pull-down with sequencing); 20 mM Tris-HCl pH 7.5, 100 mM NaCl, 1.5 mM MgCl2, 0.4 uM protein, 0.1 uM dsDNA library, 30 min, room temperature, amylose pull-down; high values mean tight binding
# Conditions: protein: recombinant; tags: His6-MBP; chain copies: 2; dsDNA, one strand shown
# How it was run: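 A fragment of mouse FoxP3 or FoxP1 without its N-terminus, carrying a His6-MBP tag and produced in E. coli, was combined at 0.4 µM with a 0.1 µM degenerate double-stranded DNA library filled in with Klenow. The mixture sat for 30 min at room temperature in Tris pH 7.5 buffer containing NaCl and MgCl2. Protein–DNA complexes were captured on amylose resin, washed three times, and the DNA was freed with proteinase K, barcoded by PCR and sequenced on Illumina. Binding is expressed as reads-per-million enrichment of pull-down over input, with replicates pooled.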
row,Sequence,binding signal
1,GATGATTGTTCTCCCAGCTGATGAATTTTTCAGTTCGAGTAAACAAATTTTCCTAATCTTTCTGTTCAAGCGCCATCTAC,0.943 RPM ratio (pull-down/input)
2,GATGATTGTTCTCCCAGCTGATGAATTATTGTGTTCGAGTAAACAAATTTTCCTAATCTTTCTGTTCAAGCGCCATCTAC,2.1 RPM ratio (pull-down/input)
3,GATGATTGTTCTCCCAGCTGATGAATTGCGCTATTCGAGTAAACAAATTTTCCTAATCTTTCTGTTCAAGCGCCATCTAC,1.18 RPM ratio (pull-down/input)
4,GATGATTGTTCTCCCAGCTGATGAATTTCACTTCTCGAGTAAACAAATTTTCCTAATCTTTCTGTTCAAGCGCCATCTAC,0.794 RPM ratio (pull-down/input)
5,GATGATTGTTCTCCCAGCTGATGAATTTACCACATCGAGTAAACAAATTTTCCTAATCTTTCTGTTCAAGCGCCATCTAC,1.51 RPM ratio (pull-down/input)
6,GATGATTGTTCTCCCAGCTGATGAATTATAAGCGTCGAGTAAACAAATTTTCCTAATCTTTCTGTTCAAGCGCCATCTAC,1.05 RPM ratio (pull-down/input)
7,GATGATTGTTCTCCCAGCTGATGAATTAGAGAGCTCGAGTAAACAAATTTTCCTAATCTTTCTGTTCAAGCGCCATCTAC,0.858 RPM ratio (pull-down/input)
8,GATGATTGTTCTCCCAGCTGATGAATTGGCAGAATCGAGTAAACAAATTTTCCTAATCTTTCTGTTCAAGCGCCATCTAC,0.88 RPM ratio (pull-down/input)
9,GATGATTGTTCTCCCAGCTGATGAATTGCCTCTATCGAGTAAACAAATTTTCCTAATCTTTCTGTTCAAGCGCCATCTAC,1.05 RPM ratio (pull-down/input)
10,GATGATTGTTCTCCCAGCTGATGAATTGGTTCCTTCGAGTAAACAAATTTTCCTAATCTTTCTGTTCAAGCGCCATCTAC,0.944 RPM ratio (pull-down/input)
11,GATGATTGTTCTCCCAGCTGATGAATTTAAATGCTCGAGTAAACAAATTTTCCTAATCTTTCTGTTCAAGCGCCATCTAC,1.3 RPM ratio (pull-down/input)
12,GATGATTGTTCTCCCAGCTGATGAATTTTTGCGATCGAGTAAACAAATTTTCCTAATCTTTCTGTTCAAGCGCCATCTAC,1.01 RPM ratio (pull-down/input)
13,GATGATTGTTCTCCCAGCTGATGAATTCGGGGGATCGAGTAAACAAATTTTCCTAATCTTTCTGTTCAAGCGCCATCTAC,0.802 RPM ratio (pull-down/input)
14,GATGATTGTTCTCCCAGCTGATGAATTGAACAACTCGAGTAAACAAATTTTCCTAATCTTTCTGTTCAAGCGCCATCTAC,0.949 RPM ratio (pull-down/input)
15,GATGATTGTTCTCCCAGCTGATGAATTAAACAGCTCGAGTAAACAAATTTTCCTAATCTTTCTGTTCAAGCGCCATCTAC,1.19 RPM ratio (pull-down/input)
16,GATGATTGTTCTCCCAGCTGATGAATTCCGCAGCTCGAGTAAACAAATTTTCCTAATCTTTCTGTTCAAGCGCCATCTAC,0.792 RPM ratio (pull-down/input)

row,Sequence,binding signal
1,GATGATTGTTCTCCCAGCTGATGAATTTATAACATCGAGTAAACAAATTTTCCTAATCTTTCTGTTCAAGCGCCATCTAC,1.31 RPM ratio (pull-down/input)
2,GATGATTGTTCTCCCAGCTGATGAATTGTAGGTATCGAGTAAACAAATTTTCCTAATCTTTCTGTTCAAGCGCCATCTAC,1.12 RPM ratio (pull-down/input)
3,GATGATTGTTCTCCCAGCTGATGAATTGCAGTCTTCGAGTAAACAAATTTTCCTAATCTTTCTGTTCAAGCGCCATCTAC,1.14 RPM ratio (pull-down/input)
4,GATGATTGTTCTCCCAGCTGATGAATTCTATGTTTCGAGTAAACAAATTTTCCTAATCTTTCTGTTCAAGCGCCATCTAC,1.17 RPM ratio (pull-down/input)
5,GATGATTGTTCTCCCAGCTGATGAATTAGAAAAATCGAGTAAACAAATTTTCCTAATCTTTCTGTTCAAGCGCCATCTAC,1.04 RPM ratio (pull-down/input)
6,GATGATTGTTCTCCCAGCTGATGAATTGCGCCACTCGAGTAAACAAATTTTCCTAATCTTTCTGTTCAAGCGCCATCTAC,1.04 RPM ratio (pull-down/input)
7,GATGATTGTTCTCCCAGCTGATGAATTAGCGACATCGAGTAAACAAATTTTCCTAATCTTTCTGTTCAAGCGCCATCTAC,0.993 RPM ratio (pull-down/input)
8,GATGATTGTTCTCCCAGCTGATGAATTGAGTCTGTCGAGTAAACAAATTTTCCTAATCTTTCTGTTCAAGCGCCATCTAC,0.855 RPM ratio (pull-down/input)
9,GATGATTGTTCTCCCAGCTGATGAATTATTCTAGTCGAGTAAACAAATTTTCCTAATCTTTCTGTTCAAGCGCCATCTAC,0.986 RPM ratio (pull-down/input)
10,GATGATTGTTCTCCCAGCTGATGAATTTGTCAGGTCGAGTAAACAAATTTTCCTAATCTTTCTGTTCAAGCGCCATCTAC,0.921 RPM ratio (pull-down/input)
11,GATGATTGTTCTCCCAGCTGATGAATTGTTCTTATCGAGTAAACAAATTTTCCTAATCTTTCTGTTCAAGCGCCATCTAC,1.41 RPM ratio (pull-down/input)
12,GATGATTGTTCTCCCAGCTGATGAATTTTATCTCTCGAGTAAACAAATTTTCCTAATCTTTCTGTTCAAGCGCCATCTAC,0.885 RPM ratio (pull-down/input)
13,GATGATTGTTCTCCCAGCTGATGAATTAATGGGTTCGAGTAAACAAATTTTCCTAATCTTTCTGTTCAAGCGCCATCTAC,0.881 RPM ratio (pull-down/input)
14,GATGATTGTTCTCCCAGCTGATGAATTCCTAGACTCGAGTAAACAAATTTTCCTAATCTTTCTGTTCAAGCGCCATCTAC,0.82 RPM ratio (pull-down/input)
15,GATGATTGTTCTCCCAGCTGATGAATTCATTAAGTCGAGTAAACAAATTTTCCTAATCTTTCTGTTCAAGCGCCATCTAC,0.936 RPM ratio (pull-down/input)
16,GATGATTGTTCTCCCAGCTGATGAATTGTCACATTCGAGTAAACAAATTTTCCTAATCTTTCTGTTCAAGCGCCATCTAC,1.2 RPM ratio (pull-down/input)
